In all, about 33,000 sequences were measured (“E-score (-0.5 to 0.5)”: median about -0.036, highest 2% from about 0.37 on). This is one part of the list.
What follows are sequences tested against T1, Yer064c (UniProt P40041) (assay: PBM E-score (8-mer binding enrichment) (E-score (-0.5 to 0.5)); higher = stronger / more preferred TF binding; most listed sequences are background and not binding sites). Conditions: protein concentration: 200 nM; construct: GST-full length.
T1 sequence: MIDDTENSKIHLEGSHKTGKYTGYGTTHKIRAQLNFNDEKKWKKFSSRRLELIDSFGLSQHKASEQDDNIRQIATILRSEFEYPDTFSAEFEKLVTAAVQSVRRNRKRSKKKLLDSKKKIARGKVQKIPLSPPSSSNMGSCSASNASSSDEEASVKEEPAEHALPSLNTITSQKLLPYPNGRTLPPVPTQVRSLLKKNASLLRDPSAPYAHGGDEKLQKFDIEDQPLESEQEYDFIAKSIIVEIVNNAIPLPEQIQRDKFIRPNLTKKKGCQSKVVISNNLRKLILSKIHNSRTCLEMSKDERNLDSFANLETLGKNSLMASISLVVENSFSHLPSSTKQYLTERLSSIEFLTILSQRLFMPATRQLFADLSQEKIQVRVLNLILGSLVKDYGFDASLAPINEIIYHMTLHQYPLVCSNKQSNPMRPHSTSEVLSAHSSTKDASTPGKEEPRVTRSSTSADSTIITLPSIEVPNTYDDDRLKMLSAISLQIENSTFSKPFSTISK
Procedure, shortened: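 Using PURExpress in vitro transcription/translation, GST-tagged yeast transcription factors were made in full-length or DNA-binding-domain form. These were applied at about 100-200 nM to double-stranded universal all-10-mer Agilent arrays, and bound protein was detected with fluorescent anti-GST. Scans were normalised with masliner before the Universal PBM Analysis Suite assigned E-scores to ungapped eight-base words pooled with their reverse complements.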

Row | Sequence | PBM E-score
1 | CGCATAAG | -0.0988
2 | CATACTCC | 0.0254
3 | AGTTGCTG | -0.0363
4 | AGACTCGC | 0.336
5 | ACGGGGCA | -0.215
6 | AATGCTGG | -0.117
7 | AAACCAAG | 0.0139
8 | ATTCTGGG | 0.0516
9 | CCCGCGGA | -0.204
10 | ATGAGTCG | 0.474
11 | GACAGCTA | -0.168
12 | ATACAGGC | -0.351
13 | CCTGCAAC | -0.0909
14 | ATTAAATA | 0.148
15 | AGATGTAC | -0.161
16 | ATTATCAG | 0.169
17 | CGATGAGA | 0.0402
18 | AGGGTAAC | -0.157
19 | CCTATGTA | -0.0493
20 | GTATAGAC | 0.13
21 | AGCAGGTA | -0.131
22 | CGGCGCTA | 0.0185
23 | ACCAAGGC | -0.113
24 | CGCAAACG | -0.0502

Row | Sequence | PBM E-score
25 | CAAACCGG | -0.0378
26 | GCAGATGA | 0.0855
27 | ATAGTCAC | 0.481
28 | AGTGTCCG | -0.187
29 | AGGATATC | -0.186
30 | GCTCTGAA | -0.138
31 | ATCCGGGA | -0.104
32 | ACGGTAAC | 0.0774
33 | AAGGTCCC | -0.0918
34 | CAGACCGA | -0.0945
35 | CTTGATCA | 0.0673
36 | GCCACAAA | -0.0925
37 | ACGAATCT | 0.123
38 | CGATTCAA | 0.269
39 | ATCACACC | 0.181
40 | CATGTGGA | 0.058
41 | GGGCTCAC | -0.0905
42 | AGACGAAC | 0.0394
43 | ACCAGGTC | -0.118
44 | CTCTACAC | -0.093
45 | CAGGACAA | 0.00705
46 | GAAAATCA | 0.261
47 | CCGTACGA | -0.0292
48 | CCGGCCGC | -0.109

Row | Sequence | PBM E-score
49 | AGTCATGC | 0.487
50 | CCCACGTA | -0.0556
51 | CTTCACCA | -0.174
52 | AGGAAATA | 0.113
53 | ACACTCAG | 0.0179
54 | ATTTTGGA | 0.0812
55 | CACTTCCC | -0.141
56 | AATTGTAT | -0.131
57 | ACAGTGTC | -0.197
58 | TGTCAAAA | 0.0558
59 | CTGAAATC | 0.127
60 | CTCTAGGA | 0.0144
61 | AAAAAAGG | 0.108
62 | AGGAATCA | 0.429
63 | AGCCCTGA | 0.0478
64 | GGCCCGTA | -0.259
65 | ACTGAATC | 0.361
66 | GAGTCGTA | 0.453
67 | CCTTTGCG | -0.2
68 | AATTCTAT | -0.0536
69 | GTTGTGTA | 0.00511
70 | CAAGAAAG | 0.0812
71 | CTTGTATA | 0.147
72 | CCACCCCC | -0.286

Row | Sequence | PBM E-score
73 | TCTAACAA | -0.00355
74 | TCCCGGCA | -0.207
75 | CCAATCAC | 0.182
76 | AGGAACCA | -0.0565
77 | GTCTGTGA | 0.252
78 | AGTACTGC | -0.053
79 | ATGTGCTG | 0.0265
80 | ACACGGCT | 0.0212
81 | ATACCAAC | -0.0594
82 | AATTGCTG | -0.134
83 | CATACGCG | -0.0256
84 | GCCATGAA | -0.0661
85 | GGAGACGA | -0.119
86 | CCCTTGCA | -0.253
87 | GTCAGACA | 0.271
88 | ATGCGGCC | -0.108
89 | TAACCCCA | -0.0748
90 | GCATCGAC | -0.0987
91 | CGGCCACC | -0.219
92 | CCAATGAC | 0.271
93 | CCAGGCGA | -0.104
94 | ATCAGCTG | 0.203

Source: the supplement of paper PMC3334620
